Test results reported in PubChem BioAssay AID1508623 (National Center for Advancing Translational Sciences (NCATS), 2021).
The campaign covered roughly 48,000 compounds. About 450 (0.94%) were called active. Another 19% or so got no clear call; they are omitted. Calls follow the shape of the dose curve; as a rule, active = well fitted inhibition curve with a large enough effect; inconclusive = small, poorly fitted or top-dose-only effect; inactive = no such curve, though single readings can be large or run the other way. The list shows a part of the results.

Test: Primary qHTS for Identification of Small Molecule Inhibitors of Huntingtin Promoter Activity; also: nearly all actives have a fitted effect of over 50% in size
Settings: HEK293 HTT promoter firefly luciferase reporter (activity 0% = vehicle and -100% = no light), 24 h; series mostly up to 57.5 µM; activity change, negative = inhibition: at the top concentration
Method in brief: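 Luminescence was read after Dual-Glo reagent and a 10 min room-temperature incubation. Values were normalized to vehicle (0% activity) and zero RLU (-100% activity). Reporter HEK293 cells had been exposed to compounds (up to 57.5 uM final) for 24 h.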

Activity change, negative = inhibition, inactive:
O=C(NCc1ccc2c(c1)CCN2C(=O)c1ccccc1)c1ccco1 -12.5%
Cc1ccc(NC(=O)C(=O)NCCc2csc3nc(-c4ccccc4C)nn23)cc1Cl -9.51%
O=C(NCc1ccccc1Cl)c1ccc(NC(=O)N2CCSc3ncccc32)cc1 -19.3%
CCOC(=O)c1cc(S(=O)(=O)N2CCN(c3ccc(F)cc3)CC2)[nH]n1 -16.4%
CCCN(CCC)CCNC(=O)C1CCCN(S(=O)(=O)c2cccc3nsnc23)C1 (stereo unspecified) -1.33%
CCCCCOC(=O)c1ccc(OC(=O)c2sc3ncn(Cc4cccc(F)c4)c(=O)c3c2C)cc1 0.351%
Cc1nc(SCc2ccc(Cl)cc2)c(C#N)c(C)c1Cl 20.5%
CC(C)CC(=O)N[C@H](C(=O)N[C@H](C(=O)N[C@@H](CC(C)C)[C@@H](O)CC(=O)N[C@@H](C)C(=O)N[C@@H](CC(C)C)[C@@H](O)CC(=O)O)C(C)C)C(C)C 6.23%
COc1ccc(OC)c(NC(=O)N2CCC(CN3CCCCC3)CC2)c1 2.15%
CCOC(=O)c1cnc2ccc(OCC)cc2c1Nc1cc(Cl)c(OC)cc1OC -5.77%
Cc1ccc(C)c(OC(=O)CSc2nnc(-c3ccc4c(c3)OCO4)o2)c1 7.52%
CCOc1cc(C(=O)Nc2ccc(S(=O)(=O)Nc3cc(OC)nc(OC)n3)cc2)cc(OCC)c1OCC -17.7%
COC(=O)c1ccc(Cn2c(SCC(=O)N(C)c3ccccc3)nc3ccccc32)cc1 -4.57%
COCCNC(=O)CSc1nc(-c2ccccc2C)nc2c1c(=O)n(C)c(=O)n2C -1.9%
NS(=O)(=O)c1ccc2nc(NC(=O)COc3ccccc3)sc2c1 -6.31%
CN(Cc1ccco1)S(=O)(=O)c1nnc(NC(=O)c2cccc(Cl)c2)s1 -15.5%
CCCN(CCC)C(=O)c1cc2c(=O)n3cccc(C)c3nc2n1C 2.37%
Cc1ccc2cccc(NC(=O)c3ccc(-c4cccc(Cl)c4)o3)c2n1 -14.3%
CC(C)C(NS(=O)(=O)c1ccc2c(c1)oc(=O)n2C)C(=O)NCCc1ccc(Cl)cc1 (stereo unspecified) -4.72%
Cc1ccc(-c2nnc(Nc3ccc(S(N)(=O)=O)cc3)c3ccccc23)cc1S(=O)(=O)N1CCCCC1 -21.5%
CCOCCCNC(=O)C(c1ccc(Cl)cc1)N(Cc1cccs1)C(=O)c1ccc(NC(C)=O)cc1 (stereo unspecified) -17.4%
CCC(=O)N1CCc2cc(Br)cc(S(=O)(=O)CCC(=O)N(CC)Cc3ccccc3)c21 -16.1%
CC(C)(Oc1ccc(Cl)cc1)C(=O)Nc1nc2ccc(S(C)(=O)=O)cc2s1 -8.33% [at 11.5 µM]
CN(C)c1ccc(C(CNC(=O)c2c(F)cccc2Cl)N2CCOCC2)cc1 (stereo unspecified) 37.7%
COc1ccc(-n2c(=O)c3c4c(sc3n3c(SCCC(C)C)nnc23)COC(C(C)C)C4)cc1 (stereo unspecified) 3.6%
CC(=O)N1CCc2cc(CNS(=O)(=O)c3ccc(Cl)s3)ccc21 1.12%
COc1cc(OC)cc(C(=O)Nc2ccc3oc(-c4cccc5c(Br)cccc45)nc3c2)c1 -5.22%
CN1C(=O)C2(SCC(=O)N2c2ccc(F)cc2)c2ccccc21 (stereo unspecified) -16.9%
CCOc1ccc(OCC)c(NS(=O)(=O)c2cc(-c3onc(C)c3C)ccc2OC)c1 3.28%
CCN1CCN(CCCNC(=O)c2ccc3nc(Cc4ccccc4)oc3c2)CC1 -10.8%
Cc1cccc(N2CCN(c3nc4ccc(C)cc4n4cnnc34)CC2C)c1 (stereo unspecified) -19%
O=C(NCC(c1ccc2c(c1)OCO2)N1CCOCC1)c1c(F)cccc1F (stereo unspecified) 4.25%
CCOc1ccccc1N(CC)C(=O)c1noc2c1COc1ccc(C)cc1-2 -29.5%
CCn1cc(C(=O)NCCc2ccc(Cl)cc2)c(=O)c2cc(S(=O)(=O)N3CCC(C)CC3)ccc21 1.25%
O=C(NC1CCCCC1)c1ccc2c(c1)N(Cc1ccc(Cl)cc1)C(=O)c1ccccc1S2=O (stereo unspecified) -21.2%
O=C(c1ccc(F)cc1)n1nc(-c2ccccc2)nc1NCc1ccco1 15.9%
Cc1cccc(NC(=O)CCNS(=O)(=O)c2cccc3nsnc23)c1C -8.57%
COc1ccc(N(CC(=O)N2CCN(c3ccccc3F)CC2)S(=O)(=O)c2c(C)n[nH]c2C)cc1 -7.98%
CC1(C)CCC[C@@]2(C)[C@@H]1CC[C@@]1(C)OC(=O)C[C@H]21 -9.53%
CCn1c(C)c(C)c2cc(C(=O)NCc3cccc(C)c3)ccc21 -3.61%
O=C(c1ccccc1)N(Cc1ccco1)Cc1cccs1 -14.4%
Cc1cccc(C(=O)Nc2ccc(C(=O)OCc3cc(=O)n4nc(CC(C)C)sc4n3)cc2)c1 14.2%
COc1cccc(CNC(=O)CCc2c(C)c3cc4c(C)coc4c(C)c3oc2=O)c1 -3.92%
COc1ccc(OCC(=O)N2CCN(C(=O)c3cccc(OC)c3)CC2)cc1 -0.686%
CCc1ccccc1NC(=O)CCS(=O)(=O)c1cccc2nonc12 -2.81%
Cc1ccc(-n2ncc3c(N4CCN(C)CC4)ncnc32)cc1C -32.5%
COc1ccccc1NC(=O)c1sc2nc(C)c(C(=O)Nc3ccc(C)cc3C)c(-c3ccc(C)o3)c2c1N -12.7%
Cc1cccc(C(=O)NCC(=O)OCc2cc(=O)n3nc(C4CC4)sc3n2)c1 -11.3%
Cc1cc(C)cc(NC(=O)CCc2c(C)nc3c4cccnc4nn3c2C)c1 -15.9%
CCOC(=O)Cn1c(=O)n(C2CCCCC2)c2nc(-c3cccc(OC)c3)nc(C(N)=O)c21 -5.79%
CCc1nn2c(=O)c(S(=O)(=O)Nc3cccc(F)c3)c(C)nc2s1 -28.2%
CCC(Sc1nc2nccnc2c(=O)n1Cc1ccc(C)cc1)C(=O)NC1CCCCC1 (stereo unspecified) -17.4%
Cc1c2cnn(-c3ccccc3)c(=O)c2c(C)n1CC(=O)NCc1ccccc1 -17.7%
Cc1cccc(-n2c(SCC(=O)c3ccccc3)nnc2-c2ccc(Br)cc2)c1 -15.8%
CCCNC(=O)N1CCN(S(=O)(=O)c2ccc3c(ccn3C)c2)CC1 -42.6%
COc1cc2c(c(OC)c1)C(c1cc(OC)c(OC)c(OC)c1)CC(=O)N2 (stereo unspecified) -3.35%
CC(CNC(=O)CCCn1c(=O)c2cccn2c2cccnc21)c1ccccc1 (stereo unspecified) -8.81%
COC(=O)c1ccc(O)cc1 19%
Cc1ccccc1Nc1c(-c2ccncc2)nc2ccc(Cl)cn12 -5.58%
COc1ccc(CCNC(=O)c2ccc(CNS(=O)(=O)c3ccccc3)cc2)cc1OC -19.7%
COc1cc(NC(=O)c2ccc(NC(=O)N3CCSc4ncccc43)cc2)cc(OC)c1 -10.8%
CC(C)(C)OC(=O)N1CCC(c2c(C(=O)N3CCN(C(=O)c4ccco4)CC3)cnn2-c2ccccc2)CC1 -8.39%
Cc1cccc(CCNC(=O)C2CCCN(S(=O)(=O)c3ccc4c(c3)oc(=O)n4C)C2)c1 (stereo unspecified) -25.2%
CCOc1cccc2sc(N(CCN(CC)CC)C(=O)c3ccco3)nc12 3.31%
Cc1ccc2nc(Cl)c3cc(C(=O)NC4CCCCCC4)sc3c2c1 -9.08%
CCC1CN(C(=O)Nc2ccc(C(=O)O)cc2)c2cc(Cl)ccc2O1 (stereo unspecified) -10.1%
COc1cc(NC(=O)c2c(C)oc3ncnc(N4CCCCC4)c23)cc(OC)c1 -12.9%
Cc1ccc2c(c1)c(=O)c1ccccc1n2CCCC(=O)Nc1c(F)cccc1F -10%
CN(Cc1ccccc1)C(=O)c1cn(C)c2ccc(S(=O)(=O)N(C)C3CCCCC3)cc2c1=O -2.84%
COc1ccc(/C=C(/C#N)c2nc(-c3ccc(Br)cc3)cs2)cc1 -2.6%
Cc1cc(Br)ccc1NC(=O)C1CCN(S(=O)(=O)c2ccc(Br)s2)CC1 0.375%
CCOc1ccc(NC(=O)CCS(=O)(=O)c2ccc(Br)cc2)cc1 -12.2%
Cc1cccc(Cn2c(SCc3ccc(C(=O)NC4CCCCC4)cc3)nc3ccncc32)c1 1.66%
COc1ccc(NC(=O)c2c(C)oc3ccc(O)c(CN4CCN(Cc5ccccc5)CC4)c23)cc1 -8.05%
CCC(=O)N1CCc2cc(S(=O)(=O)CCC(=O)NCc3cccc(OC)c3)ccc21 -8.58%
Cc1ccc2c(c1)-c1c(cnn1CC(=O)Nc1ccccc1C#N)CO2 -17.9%
Cc1ccc(OC(=O)CSc2nnc(CNC(=O)c3ccccc3)o2)cc1 4.6%
Cc1ccc(CCNC(=O)CCSCc2ccccc2Cl)cc1 -3.11%
CCCn1c2ccccc2c2cnn(CC(=O)NC(CCSC)C(=O)OC)c(=O)c21 (stereo unspecified) 2.75%
CCOC(=O)c1nnc2c(-c3ccc(Cl)cc3)c(C)nn2c1C -6.4%
Cc1c(C(=O)NCCN(C)C)sc2nc3n(c(=O)c12)CCC3 0.954%
C[C@@H]1C[C@H]2[C@@H]3C[C@H](F)C4=CC(=O)C(Cl)=C[C@]4(C)[C@@]3(F)[C@@H](O)C[C@]2(C)[C@@]1(O)C(=O)CO -5.14%
CCOc1ccc(NC(=O)c2oc3ccccc3c2NC(=O)Cc2cccc(C)c2)cc1 -17.5%
COC(=O)Nc1nc2ccc(S(=O)c3ccccc3)cc2[nH]1 (stereo unspecified)
COc1ccc(OC)c(NS(=O)(=O)c2ccc(Br)s2)c1 -28.4%
CCn1cc(C(=O)O)c(=O)c2cc3c(cc21)OCO3 2.08% [at 25.2 µM]
O=C(Nc1ncc(SCCN2CCCC2)s1)[C@]1(c2ccc(S(=O)(=O)C3CC3)cc2)C[C@@H]1C1CCCCC1 -11.6%
CCC(C(=O)OCCN(CC)CC)c1ccccc1 (stereo unspecified) 9.58%
CC(C)c1ccc(NC(=O)CCNS(=O)(=O)c2cccc3nsnc23)cc1 -20.4%
CN1CCN(CCC(=O)Nc2ccc(Cl)cc2)CC1 -17.2%
COc1ccc(C(=O)Oc2ccc(C(c3c(C)[nH][nH]c3=O)c3c(C)[nH][nH]c3=O)cc2OC)cc1 0.587%
Cc1cccc(NC(=O)CSc2nc(=O)n(Cc3cccnc3)c3c2CCC3)c1 0%
COc1cc(NC(=O)c2ncn(-c3ccccc3)n2)cc(OC)c1 54.6%
Cn1ncc(C(=O)N2CCN(c3ccccc3F)CC2)c1C1CCN(C(=O)OC(C)(C)C)CC1 -4.06%
CC(=O)c1ccc(NC(=O)CSc2nccn2Cc2ccc3c(c2)OCO3)cc1 -32.3%
Cc1cc(SCC(=O)NCc2ccc(F)cc2)nc(=O)[nH]1 0.945%
